PubChem BioAssay AID360 (National Center for Advancing Translational Sciences (NCATS), 2006)
Out of some 48,000 compounds screened, about 550 (1.1%) were called active. Inconclusive results (about 4%) are left out. Rule as the data show it: active = potency below about 15 µM; inconclusive = mostly about 16 µM to 33 µM; inactive = weaker than that. Some of the results follow.

target: Lysosomal acid glucosylceramidase (Homo sapiens) (UniProt P04062); experiment: Glucocerebrosidase; conditions: purified enzyme, resorufin glucoside fluorescence (screen aimed at inhibitors), 20 min;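 also: the screen sought inhibitors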
Procedure, shortened: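 Wild-type enzyme at 0.2 nM final in 50mM citric acid/KH2PO4, 10mM sodium taurocholate, 0.01% tween-20, pH 5.9, with resorufin beta-D-glucopyranoside at 30 uM final. Compounds titrated, 20 min at RT, red fluorescence read; AC50 from titration.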
Potency is read from the fitted curve at half-maximal effect.

Chain of UniProt P04062 (P04062 whole entry, looked up): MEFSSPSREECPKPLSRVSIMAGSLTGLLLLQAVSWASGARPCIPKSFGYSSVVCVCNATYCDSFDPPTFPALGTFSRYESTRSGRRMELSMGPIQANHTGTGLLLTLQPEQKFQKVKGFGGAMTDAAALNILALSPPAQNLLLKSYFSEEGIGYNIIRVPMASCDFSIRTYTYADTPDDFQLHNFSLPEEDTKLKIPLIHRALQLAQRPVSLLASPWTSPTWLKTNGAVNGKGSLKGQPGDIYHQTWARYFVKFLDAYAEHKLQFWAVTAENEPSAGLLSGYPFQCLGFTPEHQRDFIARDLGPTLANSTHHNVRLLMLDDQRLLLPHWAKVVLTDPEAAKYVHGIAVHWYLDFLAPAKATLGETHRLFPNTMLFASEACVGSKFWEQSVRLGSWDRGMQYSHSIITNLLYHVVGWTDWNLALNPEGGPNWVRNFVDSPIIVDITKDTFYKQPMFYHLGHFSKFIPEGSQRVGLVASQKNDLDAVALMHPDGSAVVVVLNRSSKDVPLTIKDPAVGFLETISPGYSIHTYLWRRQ

Potency, inactive:
COc1ccc(CCNC(=O)c2cc(-c3ccc4c(c3)OCO4)on2)cc1OC > 76.9 µM
CCc1nc(OCCN(CC)CC)c2oc3ccccc3c2n1 > 76.9 µM
CC(=O)Cn1c(CN2CC(C)CC(C)C2)nc2c1c(=O)n(C)c(=O)n2C (centres undefined) > 76.9 µM
O=C(CNS(=O)(=O)c1cccs1)N1CCN(c2ccccn2)CC1 > 76.9 µM
O=C(CSc1ncn(-c2ccccc2)n1)Nc1nc2c(s1)CCCC2 > 76.9 µM
O=C(Nc1ccc2oc(-c3ccncc3)nc2c1)c1ccccc1F > 76.9 µM
CCN1C(=O)c2cccc3c(NC(=O)C4CCCCC4)ccc1c23 > 76.9 µM
O=C(CCc1ccccc1)OCCN1CCOCC1 > 76.9 µM
O=C(COc1ncnc2ccccc12)NCCCN1CCCC1=O > 76.9 µM
CCCC(=O)Nc1ccccc1NC(=O)CN(C)S(=O)(=O)c1ccccc1 > 76.9 µM
NC(=O)c1nsc(C(=O)N(CC(=O)NCc2ccc3c(c2)OCO3)C2CCCC2)c1N > 76.9 µM
O=C(CN1CCN(Cc2ccccc2)CC1)NC(=O)NCc1ccco1 > 76.9 µM
c1ccc2[nH]c(NCCN3CCOCC3)nc2c1 > 76.9 µM
O=C(NCC1CCCO1)C1CC(=O)N(C2CCCCCC2)C1 (centres undefined) > 76.9 µM
O=C(CCc1nc(-c2ccccc2)no1)NCc1ccco1 > 76.9 µM
C=C(C)CN1C(=O)C(O)(CC(=O)c2ccc3c(c2)OCCO3)c2ccccc21 (centres undefined) > 76.9 µM
COC(=O)Cn1cc(C(=O)C2CC2)c2ccccc21 > 76.9 µM
Cc1nc2ccccc2c(=O)n1NC(=O)C1CCCCC1 > 76.9 µM
O=C(c1cn(CC(=O)N2CCCC2)c2ccccc12)C1CCCCC1 > 76.9 µM
CCOc1cc(-c2ccc(N)c(OCC)c2)ccc1N > 76.9 µM
O=C(CCCCCN1C(=O)CCC1=O)Nc1ccc2c(c1)OCCO2 > 76.9 µM
CN(Cc1cccs1)CC(O)COCc1ccco1 (centres undefined) > 76.9 µM
COc1ccc(F)cc1S(=O)(=O)N1CCN(Cc2ccc3c(c2)OCO3)CC1 > 76.9 µM
Cc1ccc(NC(=O)CS(=O)CC(=O)Nc2ccc3c(c2)OCO3)cc1Cl (centres undefined) > 76.9 µM
Cc1nn(-c2nc3ccccc3s2)c(N)c1-c1ccccc1 > 76.9 µM
O=C(C1CCCN(S(=O)(=O)c2ccccc2)C1)N1CCCc2ccccc21 (centres undefined) > 76.9 µM
COc1cc(OC)nc(NC(=O)CN2CCN(c3ccc(F)cc3)CC2)n1 > 76.9 µM
COc1ccc(-c2nnc(NC(=O)c3ccc(S(=O)(=O)N4COCC4(C)C)cc3)o2)cc1 > 76.9 µM
COc1ccc(CNC(=O)CCCNS(=O)(=O)c2cccc3nonc23)cc1 > 76.9 µM
O=C(CCC(=O)N(CC(=O)NC1CCCC1)Cc1ccc2c(c1)OCO2)Nc1ccccn1 > 76.9 µM
O=C(Cc1cccs1)Nc1cccc(C(=O)Nc2ccco2)c1 > 76.9 µM
Cc1ccccc1OCC(O)Cn1c(NCc2ccco2)nc2c1c(=O)n(C)c(=O)n2C (centres undefined) > 76.9 µM
O=C(COc1c(F)c(F)cc(F)c1F)NC(=O)NC1CCCC1 > 76.9 µM
O=C(CCn1c(=O)oc2ccccc21)Nc1ccon1 > 76.9 µM
Cc1cc(Cl)c(S(=O)(=O)NCc2cccnc2)cc1OCC(N)=O > 76.9 µM
CCN1C(=O)CC(n2c(C)nc3ccccc32)C1=O (centres undefined) > 76.9 µM
COc1cccc(-c2noc(C3CCCN(S(=O)(=O)c4cccc(Cl)c4C)C3)n2)c1 (centres undefined) > 76.9 µM
O=C(O)Cn1ccnc1 > 76.9 µM
O=S1(=O)Nc2c(ccc3cccnc23)-c2ccccc21 > 76.9 µM
CCOC(=O)c1ccc(NC(=O)C2CC2)cc1 > 76.9 µM
Cc1n[nH]c(=O)nc1NCC1CCCO1 (centres undefined) > 76.9 µM
COc1cc2c(cc1NC(=O)CN(C)Cc1nc3ccccc3c(=O)[nH]1)oc1ccccc12
CN(C)C(=O)c1ccc(Oc2ccc(C(=O)N(C)C)cc2)cc1 > 76.9 µM
O=C(Cc1cn2ccsc2n1)OCc1nc2ccccc2s1 > 76.9 µM
CCN(CC)C(=O)CSc1nnc2sc3ccccc3n12 > 76.9 µM
CCCCNc1nc2c(c(=O)[nH]c(=O)n2C)n1CCOc1ccccc1 > 76.9 µM
Cc1ccccc1NC(=O)N1CCCC(c2nc(-c3ccc(C(C)C)cc3)no2)C1 (centres undefined) > 76.9 µM
CC(C)[C@H](NC(=O)NCc1cccs1)C(=O)O > 76.9 µM
COc1ccc(N2CCn3c2nc2c3c(=O)n(CCc3ccccc3)c(=O)n2C)c(OC)c1 > 76.9 µM
Cn1c(=O)[nH]c(=O)c2c1nc(N1CCCCC1)n2CCOc1ccccc1 > 76.9 µM
COc1cc2cc(C(c3nnnn3C3CCCC3)N(C)C3CCCCC3)c(=O)[nH]c2cc1OC (centres undefined) > 76.9 µM
CCOC(=O)c1c(CN2CCCCC2)n(C)c2ccc(OC)c(S(=O)(=O)c3ccccc3)c12 > 76.9 µM
CC(=O)n1nc(-c2ccccc2)nc1NCc1ccc(F)cc1 > 76.9 µM
Cc1cc(C)c(NC(=O)C2CSCCS2)c(C)c1 (centres undefined) > 76.9 µM
Cc1nc(C)n(C(=O)N(c2ccccc2)c2ccccc2)n1 > 76.9 µM
CCC(=O)c1cc2c(cc1NC(=O)C(C)C)OCCO2 > 76.9 µM
Cc1noc(NS(=O)(=O)c2ccc(NC(=O)CSc3nc4ccccc4[nH]3)cc2)c1C
Cc1cnc(C)c(N2CCC(C(=O)NCc3cccs3)CC2)n1 > 76.9 µM
CC(C)CCn1c(NCCN(C)C)nc2c1c(=O)[nH]c(=O)n2C > 76.9 µM
